# Experimental data as given in the supplement of paper PMC11417369.
# ± gives the standard deviation of the averaged measurements. The list shows a part of the results.
# Test system: PfAP2-G AP2 domain (GST-tagged)
# Assay: gcPBM binding intensity (ln(normalized median fluorescence intensity)); higher = stronger DNA binding
# Method in brief: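 GST-tagged P. falciparum DNA-binding domains, expressed in E. coli (about 25 μg on average), were applied for 1 h to an Agilent 4 × 180k array of primer-extended double-stranded 36-bp intergenic genomic probes plus negative controls. The binding buffer was 1× PBS with 1% milk, 0.2 mg/ml BSA, 0.5% salmon testes DNA and 0.03% Triton X-100. Bound protein was detected with Alexa488 anti-GST antibody and scanned at 488 nm. Binding intensity is the highest Masliner-normalised natural-log median intensity across replicate spots of either probe orientation.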
row,Sequence,gcPBM binding intensity (ln)
1,TTCCAAAAAATTATTACACACATATGGGCACATATA [CACACA_site679],10.6 ± 0.4
2,ATGAATTTATTACATTGTACATTTTTAAAAGGTTAC [XGTACX_site124],10.8 ± 0.49
3,TTATATATTTTTTTTTGTACATAGAAGAGGGAAAAA [XGTACX_site2178],10.8 ± 0.67
4,AAAAAAAAAAAAAACACACACACAAGAGTATATAAA [CACACA_site6580],10.1 ± 0.27
5,AATAAAATGAAATGAAATAAAAAAAAAAAAAAAATG [TGCATGCA_negctrl_site305],9.84 ± 0.26
6,ACTTATTGTGGTTTTGCATGTAGCATTTTTACATAC [TGCATGCA_site247],10.37 ± 0.092
7,TATACCAATGAATGAGTGCAAAGAAGATAAGGAAAA,10.2 ± 0.13
8,AAGGTATTTATAACTACACACTTATTTATAACCTAA [CACACA_site6194],9.935 ± 0.007
9,AACATATATATATACACACACATATATATATGAAAT [CACACA_site279],9.95 ± 0.26
10,ATTATTAATATTATATGTACGCACTATATCAAGGCT [XGTACX_site6468],11.5 ± 1.1
11,TATATTATAAACATATGTACATATGTATAAATACAT [XGTACX_site722],11.1 ± 0.67
12,AAAAAAAAAAAAAAATTAAAGTAATGGAAAAAAAAA [CACACA_negctrl_site1666],9.83 ± 0.042
13,ACAACGCGTTAAATGTGTACATATTTATAAGTATAT [XGTACX_site8777],11.5 ± 0.88
14,AATCATTTTATTATCCTAACAAAAAAAAAATATATT [CACACA_negctrl_site115],9.86 ± 0.18
15,ACGATGCATTAATCTGCACACCACAACAAAACGTTT [CACACA_site899],10.2 ± 0.16
16,TTTGCATTTCTTAATTGTACTTAAAAAAAAAATAAT [XGTACX_site758],11.3 ± 0.91
17,AGCTATGTATTCTACACACACATACAGACATATATA [CACACA_site3428],10.03 ± 0.021
18,ATTAAATGCACATATACACACACCCAATTTTAAGTT [CACACA_site3049],10.2 ± 0.14
19,AATAATTTTTAAATATAAACATTTTTTTTTTTTTTT [GTGCAC_negctrl_site532],9.72 ± 0.057
20,TTTTATTTTTTATTTGCACACAATATGTAAAAAAAT [CACACA_site2927],10.3 ± 0.43
21,ATAAAATATTAGACATTTATTAATATTACACATATC [XGTACX_negctrl_site364],9.645 ± 0.092
22,ATATATATATATTCCACACACACACCCAAAAAAAAA [CACACA_site3649],10.4 ± 0.43
23,ACAAAATAAACCACGTGTACAAATTTATAATGTGTA [XGTACX_site1153],11.2 ± 0.63

row,Sequence,gcPBM binding intensity (ln)
1,CTTTTTTATATCTCTACACACATTTATAACCATTTG [CACACA_site4897],10.2 ± 0.11
2,TCAAAAGAATAATTGGTGCAAATTATATAATATAAT [GTGCAC_site9804],9.9 ± 0.15
3,ATATTTATGGAAAAAGAACACACAATCAAACAAAAA [CACACA_site9233],10.21 ± 0.035
4,TAATATAATAGAAGTGTACACACATATTTATGGGTG [CACACA_site9023],11.6 ± 0.93
5,TAATATAATGATGCAGTGCATATGTTAAAATGAAAA,10.05 ± 0.099
6,TATTTTAAAAAAAAAAGTACACATAATATATATAAC [XGTACX_site5416],11.5 ± 0.99
7,ATACATTTATTGTATTGTACATAATATTATATATTC [XGTACX_site7115],10.9 ± 0.49
8,ATATATATAATTTTTACACACGCAATAAATATATAT [CACACA_site218],9.99 ± 0.13
9,ACAAGGAATATATAAGATAATTTTAAATATAACACG [CACACA_negctrl_site1734],9.77 ± 0.057
10,TAAATATCAAAACACACACACAAAAGTGAATAAATA [CACACA_site3762],10.1
11,AATCAAAATATATCTACACACATTTAAGTAACACAT [CACACA_site3482],10.04 ± 0.021
12,TTATAATAAAGAGGAGTGCAAAAAAAAAAAAAAAAA,9.98 ± 0.56
13,TATAAGGTGTCCTATACACACTCCAATAAATATATA [CACACA_site2091],10.7 ± 0.64
14,TAAAGAGAAAAACATACACACACAACAAAATATGTA [CACACA_site8872],10.01 ± 0.028
15,AGGAACATAAGCAATGTATAAACATAAAACTATAAT [CACACA_negctrl_site1832],9.73 ± 0.33
16,TATTAATTAAACCATACACACATAACTTTTTTATAA [CACACA_site6526],9.955 ± 0.021
17,ATTTTTTTCTTAGGAGTGCACTTATATTTATTTTAT,10.6 ± 0.3
18,AAAAAAAAAAAAAACACACACACACCCACATATACA [CACACA_site2663],10.4 ± 0.33
19,CTCTGTTGTCTTAGTTGTACAATAGAAAAAAATAAT [XGTACX_site7043],11.5 ± 0.88
20,TCTTTTAAACAGTACACACACACATCTATATTTATA [CACACA_site6559],11.2 ± 0.79
21,ATATATATATATATATGTACATATTGTATTAATTAT [XGTACX_site1919],11.1 ± 0.49
22,AAAGGTTCACATTATATAGTTATGTAATATATATGT [CACACA_negctrl_site542],9.885 ± 0.092
